In the RNAGym collection of RNA variant scans (doi:10.1093/nar/gkz1192) one finds self-cleavage data, which are given here for 83 variants.

To fix the notation:
B1: CPEB3 Ribozyme (parent)
chain: UAACAGGGGGCCACAGCAGAAGCGUUCACGUCGCAGCCCCUGUCAGAUUCUGGUGAAUCUGCGAAUUCUGCUGUAUAUCUC

Read counts are not given, so values of variants with three or more changes are uncertain.

The variants in this series derive from B1. The series can be described thus: self-cleavage, relative activity (ratio to wild type); higher = more cleavage; in vitro, sequencing. The method, boiled down: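 Libraries of CPEB3 self-cleaving ribozyme mutants came from rounds of error-prone PCR and carried barcodes, which DNA sequencing matched to variants. In vitro transcription used T7 RNA polymerase at 37°C for 5 hours, with a further 15 min in DNase I before EDTA stopped the reaction; the ribozymes cleaved during both steps. The RNA was reverse transcribed with template switching and sequenced on Illumina. Relative activity is the cleaved/total read fraction of a variant divided by that of the unmutated ribozyme, averaged over three batches with at least 5 reads.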
As for A5G U25C A28U U49A, the self-cleavage came out at 0.12. Next, A5U A18G U26C G36C U76A: 0. With A5U A15U A65U U67C, the self-cleavage worked out at 0.17.

Consider A5G U25C U49C U72C, for which the self-cleavage was found to be 0.24. Next, A5G U60C A64U U67A U76A: 0.23. As for A5U A21G A28U A64G, the figure is 0.58; as for A5G U41C U72C, 0.83. In the case of A5G U26C C34U A35G U72C U78C, the self-cleavage was 0.12. As for A5U A15U U41C U43C G55C, the figure is 0.15; as for A5U A20G C32A A35G U54A U78C, 0.36; as for A5U A20U U41C G70A U72C, 0.13. Next, A5G U43G U72A: 0.33; A5U A18U C79G: 1.01; A5G U26C A64U: 0.22. For the variant A5G U26C A28G U49C, the self-cleavage was determined as 0.08.

For the variant A5U A15C A56C A57G U58C U69A, the self-cleavage was 0.18.

Take A5G U25C C44U U48C A57G: the self-cleavage is 0.33. As for A5U A15G A20G C32U U54C U80A C81U, the figure is 0.34; as for A5U A15U U51A U67A U69C, 0.31.

For the variant A5G U43C U78A, the self-cleavage turned out to be 0.13.

As for A5U A15U G30A A35U U72C, the self-cleavage stood at 0.24.

Turning to A5G U25C A28C G63U A64U U69C, the self-cleavage turned out to be 0.11. As for A5G U31C U69C, the figure is 0.46; as for A5G U48C U51A U74A, 0.46; as for A5G U25C A47G A56U U69A, 0.15. As for A5U A20G A47G C68A, the figure is 0.14; as for A5U A15G A18G U69C U78A, 1.23; as for A5G U41C U51C, 0.53.

Take A5U A18C C40U A77G: the self-cleavage came to 0.39. Next, A5G U25C U43C C44U: 0.11. For the variant A5U A18G U25C C50U U54G, the self-cleavage was 0.05. Next, A5G U25C U49C U51C: 0.28; A5G U26A A28G G33A A35G U49A C50A: 0.19; A5G U43C U49C: 0.1. Next, A5G U25C U78C U80C: 0.11; A5G U43C U54C A57U U67C: 0.11; A5G U26C U49C: 0.07. Next, A5G U26C G53C U72C G73A: 0.2. Consider A5U A21C G33A U43C A47G U69A, for which the self-cleavage was 0.11. Next, A5U A15G U51G U66C U78C: 0.61; A5U A18G A20G U72C: 0.45. Next, A5U A20U U26C U43C G61C U66C C81A: 0.21; A5G U26C U31C U67C: 0.21. Next, A5G U66A U78C: 0.54; A5U A13G G33A A77G: 0.61; A5U A13G U43A U66C: 0.41.

Take A5G U41A A64C: the self-cleavage came out at 0.35.

Take A5U A18G A20U U31C A57G: the self-cleavage came out at 0.03.

Regarding A5U A13G C27U U51A, the self-cleavage is 0.32. Next, A5G U26A U43A U49C U72C U80C: 0.08.

As to A5U A20G U26A U66C, the self-cleavage was 0.29. Next, A5G U41C G61A: 0.28; A5G U25C A64U: 0.32; A5G U41A U72C: 0.35.

As for A5U A15U A45G A56U U58C, the self-cleavage came out at 0.13.

For the variant A5U A13U A20U A45U A65G U78C, the self-cleavage amounted to 0.09.

On to A5U A15G A47G U69C, for which the self-cleavage is 0.15. Next, A5G U54A U67C: 0.17; A5U A18U U41A U66C U80A: 0.14; A5U A15G U26C C37U U43A U60G U72A: 0.05. Next, A5G U43C U58C U67A: 0.2; A5G U26C U41C: 0.13; A5U A18G U31A: 0.54. On to A5G U26C A64U U76A, for which the self-cleavage worked out at 0.25.

Take A5G U41C U49C: the self-cleavage was found to be 0.29. Next, A5U A18G C34U U41C U43A U67C G70A: 0.07; A5G U26A U41A: 0.07.

Regarding A5G U49C U60A, the self-cleavage turned out to be 0.42. Next, A5U A18G U31A A35C U69A: 0.2; A5U A20G A28G: 0.6. As to A5G U26C U31A U51C U66C A77U, the self-cleavage stood at 0.17.

Turning to A5G U26A U60C, the self-cleavage stood at 0.16. Next, A5G U43G U60A U66C: 0.49. Next, A5U A18U U51C C81U: 0.39. A5U A15U A35G A56U U60A A65G: the self-cleavage came out at 0.56.

In the case of A5U A13G U76C, the self-cleavage is 0.98. Next, A5G U25C U26C U49C A56U: 0.69.

For the variant A5U A18G G22U U41G U69C, the self-cleavage worked out at 0.09. Regarding A5U A18U U41A A64U, the self-cleavage was 0.25. Regarding A5G U26C A57U, the self-cleavage turned out to be 0.38. On to A5G U25C A28U C40U A47G, for which the self-cleavage came out at 0.09. As for A5U A15U C23U A47G A56U U72G, the figure is 0.09; as for A5G U26C C40U A45U U51A U58G U74G, 0.09.
